# Laboratory results from PubChem BioAssay AID720708 (National Center for Advancing Translational Sciences (NCATS), 2013).
# About 660 (0.18%) of roughly 360,000 compounds were called active. The inconclusive results got no clear call from the source; some entries with a clear call stand among them for comparison. The call rests on the fitted dose curve; in most records, active means well fitted inhibition curve with a large enough effect; inconclusive means small, poorly fitted or top-dose-only effect; inactive means no such curve, though single readings can be large or run the other way. Potencies of inconclusive entries are left out as doubtful fits.
# Target: Rap guanine nucleotide exchange factor 4 (Homo sapiens) (UniProt Q8WZA2)
# Test: qHTS for Antagonist of cAMP-regulated guanine nucleotide exchange factor 2 (EPAC2): primary screen; further: nearly all actives have a fitted effect of over 45% in size
# Conditions: EPAC2 GEF exchange of Rap1B-BODIPY-GDP, fluorescence; activity, negative = inhibition: at 114 µM (top of the series) unless noted
# On the % scale 0 is the no-effect control and ±100 the full control effect; potency means the concentration at half of the fitted maximal effect; tags describe the fitted curve by direction and shape.
# UniProt Q8WZA2, sequence (Q8WZA2 whole entry, looked up): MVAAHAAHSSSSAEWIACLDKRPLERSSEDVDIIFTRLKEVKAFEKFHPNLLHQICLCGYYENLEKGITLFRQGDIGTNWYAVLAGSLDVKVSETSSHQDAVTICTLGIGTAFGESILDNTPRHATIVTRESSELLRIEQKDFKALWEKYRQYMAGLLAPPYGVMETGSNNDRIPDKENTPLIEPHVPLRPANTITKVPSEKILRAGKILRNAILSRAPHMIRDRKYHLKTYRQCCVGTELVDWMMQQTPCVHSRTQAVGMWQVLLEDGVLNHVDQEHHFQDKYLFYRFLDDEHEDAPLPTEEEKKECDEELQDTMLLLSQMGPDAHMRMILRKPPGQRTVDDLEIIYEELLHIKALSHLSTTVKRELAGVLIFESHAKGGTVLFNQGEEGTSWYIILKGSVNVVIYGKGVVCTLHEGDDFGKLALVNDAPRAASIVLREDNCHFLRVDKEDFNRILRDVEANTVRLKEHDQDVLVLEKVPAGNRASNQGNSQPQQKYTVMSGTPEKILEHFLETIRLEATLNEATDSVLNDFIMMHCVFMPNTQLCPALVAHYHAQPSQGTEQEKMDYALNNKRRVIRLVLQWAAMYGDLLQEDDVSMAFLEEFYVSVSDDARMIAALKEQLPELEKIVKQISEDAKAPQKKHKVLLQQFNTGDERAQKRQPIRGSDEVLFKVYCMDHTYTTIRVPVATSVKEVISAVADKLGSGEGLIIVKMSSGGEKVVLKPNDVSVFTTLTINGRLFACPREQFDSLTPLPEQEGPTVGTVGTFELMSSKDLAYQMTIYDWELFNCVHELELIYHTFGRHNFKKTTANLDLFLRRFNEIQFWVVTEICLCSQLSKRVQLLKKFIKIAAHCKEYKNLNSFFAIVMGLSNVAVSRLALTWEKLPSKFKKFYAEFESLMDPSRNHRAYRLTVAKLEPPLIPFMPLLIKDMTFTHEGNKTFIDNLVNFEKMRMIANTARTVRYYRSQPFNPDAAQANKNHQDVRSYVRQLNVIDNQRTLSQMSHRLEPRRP
Structure (SMILES),Potency,"activity, negative = inhibition"
CCC1CCCCN1C(=O)CCCc1ccccc1 (stereo not drawn),"inconclusive [inhibitor, single point]",
Cc1ccc(-n2c(=S)sc3c(=O)n(-c4ccccc4C)c(SCC(=O)O)nc32)cc1C,"inconclusive [inhibitor, partial curve]",
Cc1ccc(/C=C2\CCCC3=C2NC(=S)NC3c2ccc(C)cc2)cc1 (stereo not drawn),,inactive: -16.5%
O=S(=O)(NCCNc1ncc(C(F)(F)F)cc1Cl)C(F)(F)F,"inconclusive [inhibitor, single point]",
Cc1ccc(C(=O)O)cc1N=Cc1cc(Br)cc(Br)c1O,"inconclusive [inhibitor, partial curve]",
CCC1CN(C(=O)NCc2ccc(C)cc2)c2ccccc2O1 (stereo not drawn),"inconclusive [inhibitor, partial curve]",
O=C(O)COc1ccc2nsnc2c1Cl,,inactive: -7.34%
Cc1ccc(NC(=S)NNc2ccc([N+](=O)[O-])cc2S(=O)(=O)Nc2ccccc2C(=O)O)cc1C,,inactive: -20.5%
Cc1ccc(C(C[N+](=O)[O-])c2c(-c3ccccc3O)[nH][nH]c2=O)cc1 (stereo not drawn),active: 11.2 µM,
Cc1ccccc1OCC(O)COc1ccccc1C,"inconclusive [inhibitor, partial curve]",
CC(C)C(=O)N1CCC2(CC1)Oc1ccc(F)cc1C(=O)C21CC(c2ccccc2)=NO1 (stereo not drawn),"inconclusive [inhibitor, partial curve]",
COc1ccc(OC)c(C2C3CN(C(C)C)CC=C3C(C#N)=C(N)C2(C#N)C#N)c1 (stereo not drawn),"inconclusive [inhibitor, partial curve]",
Cc1cccc(N2CCN(C(=O)c3[nH]c(C(F)(F)F)nc3-c3ccccc3)CC2)c1C,"inconclusive [inhibitor, single point]",
CS(=O)(=O)c1ccc(C(=O)OCC(=O)NC23CC4CC(CC(C4)C2)C3)cc1[N+](=O)[O-],,inactive: 5.86%
CCc1ccc(N(C(=O)c2csnn2)C(C(=O)NCc2ccccc2)c2ccco2)cc1 (stereo not drawn),"inconclusive [inhibitor, partial curve]",
Cc1ccccc1N(C(=O)c1snc(C(N)=O)c1N)C(C(=O)NCC1CCCO1)c1ccc(F)cc1 (stereo not drawn),,inactive: -10.4%
C[C@H]1C(c2ccc(F)cc2)=NN(c2ccccc2)[C@@H]1CO,"inconclusive [inhibitor, partial curve]",
Cc1cccc(CNC(=O)C2CCC(=O)N(CC3CCCCC3)C2)c1 (stereo not drawn),,inactive: 5.96%
CCC1(C)Cc2nc3sc(C(=O)O)c(N)c3cc2CO1 (stereo not drawn),,inactive: -1.07%
CN1C(=O)/C(=C\c2ccc(N(C)C)cc2)OC1=S,,inactive: 3.01%
Cc1ccc(C)c(S(=O)(=O)Nc2ccccc2C(=O)Nc2cc(C)on2)c1,"inconclusive [inhibitor, full curve]",
Cc1cc(C)c(C)c(S(=O)(=O)ON2C(=O)c3ccccc3C2=O)c1C,,inactive: -15.5%

Structure (SMILES),Potency,"activity, negative = inhibition"
CC(C)O/N=C1\C(=O)N(c2ccccc2)c2ccccc21,"inconclusive [inhibitor, single point]",
CCC(=O)OCCn1c(=O)c2ccccc2c2ccccc2c1=O,"inconclusive [inhibitor, partial curve]",
COc1ccc(CCNS(=O)(=O)c2c(C)nc3scc(C)n3c2=O)cc1OC,"inconclusive [inhibitor, single point]",
O=C(Nc1cc(Cl)ccc1N1CCOCC1)c1cc2ccccc2o1,"inconclusive [inhibitor, partial curve]",
O=c1cc(-c2ccccc2)nc2cc(-c3ccc(Br)cc3)[nH]n12,,inactive: 10.1%
CCc1ccccc1NC(=O)c1cc2sccc2n1C,"inconclusive [inhibitor, partial curve]",
Cc1[nH]n(-c2ccc([N+](=O)[O-])cc2)c(=O)c1/C=N/N1CCOCC1,"inconclusive [inhibitor, single point]",
CC(=O)Nc1ccc(/C=N/N2C(=O)NC(C)(c3ccc(OC(F)F)cc3)C2=O)cc1 (stereo not drawn),,inactive: 3.94%
CCC(=O)NC(c1ccc(OC)cc1)c1c(O)ccc2ccccc12 (stereo not drawn),"inconclusive [inhibitor, partial curve]",
COC(=O)C1=C(C)N(Cc2ccccc2)C(=O)N[C@H]1c1cccc(C(F)(F)F)c1,"inconclusive [inhibitor, full curve]",
Fc1ccc2c(-c3cccc(C(F)(F)F)c3)c(-c3ccccc3)ncc2c1,"inconclusive [inhibitor, full curve, poor fit]",
COC(=O)c1cccc(NC(=S)Nc2cc(Cl)ccc2OC)c1,,inconclusive: -16.4% [inhibitor]
COCCNc1nc(Oc2ccc(Cl)c(Cl)c2)c2sccc2n1,"inconclusive [inhibitor, partial curve]",
O=S(=O)(Nc1cc(Sc2ncn[nH]2)c(O)c2ccccc12)c1ccccc1,"inconclusive [inhibitor, single point]",
CC(C)(C)c1ccc(CN(Cc2ccccc2)C(c2ccccn2)c2nnnn2C(C)(C)C)cc1 (stereo not drawn),,inactive: 0.456%
O=C(/C(N=Nc1cccc(C(F)(F)F)c1)=C(/O)c1cccs1)C(F)(F)F,"inconclusive [inhibitor, partial curve, poor fit]",
O=[N+]([O-])CC(c1ccc(F)cc1)c1c[nH]c2ccccc12 (stereo not drawn),"inconclusive [inhibitor, partial curve]",
COc1ccc2[nH]c3c(c2c1)CCN1C(=O)C(CC(=O)NCCC2=CCCCC2)C[C@H](C(=O)N2CCOCC2)[C@@]31C (stereo partly drawn),,inactive: 10.2%
COc1ccc(CN2C(=O)C(C)Nc3ncnc(N4CCc5ccccc5C4)c32)cc1 (stereo not drawn),"inconclusive [inhibitor, single point]",
O=C(Nc1ccc(C(=O)O)cc1)/C(=C\c1ccco1)NC(=O)c1ccc(Br)cc1,"inconclusive [inhibitor, partial curve]",
COc1ccc(CSC2=C(C#N)C(=O)NC3(CCCCC3)S2)cc1,"inconclusive [inhibitor, partial curve]",
